Where a chain is given by its changes, count along the chain named. Some of the results follow.
T1: RBFOX1 RRM RbFoxmut (Fox-RRM*) (Homo sapiens, UniProt Q9NWB1 109-208, R118D;E147R;N151S;E152T)
T1 sequence: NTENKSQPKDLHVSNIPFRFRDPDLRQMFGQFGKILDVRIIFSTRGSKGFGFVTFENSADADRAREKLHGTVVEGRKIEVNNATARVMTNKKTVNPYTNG

B1: UUUCCUG (DNA:RNA)
RNA: GGGAGACCGGAAUUCAGAUUGUCCUUUCCUGUUAAAUCCCGUCGUAGCCACCA
DNA 1: CAATCTGAATTCCGGTCTCCC
DNA 2: TGGTGGCTACGACGGGATT
B2: CAUUUUA (DNA:RNA)
RNA: B1 RNA with U25C, U26A, C28U, C29U, G31A
DNA 1: CAATCTGAATTCCGGTCTCCC
DNA 2: TGGTGGCTACGACGGGATT
B3: GCCCCCU (DNA:RNA)
RNA: B1 RNA with U25G, U26C, U27C, U30C, G31U
DNA 1: CAATCTGAATTCCGGTCTCCC
DNA 2: TGGTGGCTACGACGGGATT
B4: CCGAACU (DNA:RNA)
RNA: GGGAGACCGGAAUUCAGAUUGUCCCCGAACUUUAAAUCCCGUCGUAGCCACCA
DNA 1: CAATCTGAATTCCGGTCTCCC
DNA 2: TGGTGGCTACGACGGGATT
B5: CCAUUUA (DNA:RNA)
RNA: B4 RNA with G27A, A28U, A29U, C30U, U31A
DNA 1: CAATCTGAATTCCGGTCTCCC
DNA 2: TGGTGGCTACGACGGGATT
B6: GAGUAUA (DNA:RNA)
RNA: B4 RNA with C25G, C26A, A28U, C30U, U31A
DNA 1: CAATCTGAATTCCGGTCTCCC
DNA 2: TGGTGGCTACGACGGGATT
B7: AUUAGGC (DNA:RNA)
RNA: B1 RNA with U25A, C28A, C29G, U30G, G31C
DNA 1: CAATCTGAATTCCGGTCTCCC
DNA 2: TGGTGGCTACGACGGGATT
B8: AUAGCCG (DNA:RNA)
RNA: B1 RNA with U25A, U27A, C28G, U30C
DNA 1: CAATCTGAATTCCGGTCTCCC
DNA 2: TGGTGGCTACGACGGGATT
B9: AACACGU (DNA:RNA)
RNA: B4 RNA with C25A, C26A, G27C, A29C, C30G
DNA 1: CAATCTGAATTCCGGTCTCCC
DNA 2: TGGTGGCTACGACGGGATT
B10: GGUGUUC (DNA:RNA)
RNA: B1 RNA with U25G, U26G, C28G, C29U, G31C
DNA 1: CAATCTGAATTCCGGTCTCCC
DNA 2: TGGTGGCTACGACGGGATT
B11: UCCAACG (DNA:RNA)
RNA: B4 RNA with C25U, G27C, U31G
DNA 1: CAATCTGAATTCCGGTCTCCC
DNA 2: TGGTGGCTACGACGGGATT
B12: AAGGCCA (DNA:RNA)
RNA: B4 RNA with C25A, C26A, A28G, A29C, U31A
DNA 1: CAATCTGAATTCCGGTCTCCC
DNA 2: TGGTGGCTACGACGGGATT
B13: CGUACUG (DNA:RNA)
RNA: B1 RNA with U25C, U26G, C28A
DNA 1: CAATCTGAATTCCGGTCTCCC
DNA 2: TGGTGGCTACGACGGGATT
B14: GUGCGGU (DNA:RNA)
RNA: B4 RNA with C25G, C26U, A28C, A29G, C30G
DNA 1: CAATCTGAATTCCGGTCTCCC
DNA 2: TGGTGGCTACGACGGGATT
B15: AUAAACU (DNA:RNA)
RNA: B4 RNA with C25A, C26U, G27A
DNA 1: CAATCTGAATTCCGGTCTCCC
DNA 2: TGGTGGCTACGACGGGATT
B16: AGUAUAU (DNA:RNA)
RNA: B4 RNA with C25A, C26G, G27U, A29U, C30A
DNA 1: CAATCTGAATTCCGGTCTCCC
DNA 2: TGGTGGCTACGACGGGATT
B17: GUCAACC (DNA:RNA)
RNA: B4 RNA with C25G, C26U, G27C, U31C
DNA 1: CAATCTGAATTCCGGTCTCCC
DNA 2: TGGTGGCTACGACGGGATT
B18: AGGCAAU (DNA:RNA)
RNA: B4 RNA with C25A, C26G, A28C, C30A
DNA 1: CAATCTGAATTCCGGTCTCCC
DNA 2: TGGTGGCTACGACGGGATT
B19: GUGGAUG (DNA:RNA)
RNA: B1 RNA with U25G, U27G, C28G, C29A
DNA 1: CAATCTGAATTCCGGTCTCCC
DNA 2: TGGTGGCTACGACGGGATT
B20: GCAGGAA (DNA:RNA)
RNA: B4 RNA with C25G, G27A, A28G, A29G, C30A, U31A
DNA 1: CAATCTGAATTCCGGTCTCCC
DNA 2: TGGTGGCTACGACGGGATT
B21: AAUACCU (DNA:RNA)
RNA: B4 RNA with C25A, C26A, G27U, A29C
DNA 1: CAATCTGAATTCCGGTCTCCC
DNA 2: TGGTGGCTACGACGGGATT
B22: AGUAAUU (DNA:RNA)
RNA: B4 RNA with C25A, C26G, G27U, C30U
DNA 1: CAATCTGAATTCCGGTCTCCC
DNA 2: TGGTGGCTACGACGGGATT
B23: AGCUAGA (DNA:RNA)
RNA: B4 RNA with C25A, C26G, G27C, A28U, C30G, U31A
DNA 1: CAATCTGAATTCCGGTCTCCC
DNA 2: TGGTGGCTACGACGGGATT
B24: AUUAACG (DNA:RNA)
RNA: B4 RNA with C25A, C26U, G27U, U31G
DNA 1: CAATCTGAATTCCGGTCTCCC
DNA 2: TGGTGGCTACGACGGGATT
B25: AUCCCGC (DNA:RNA)
RNA: B1 RNA with U25A, U27C, U30G, G31C
DNA 1: CAATCTGAATTCCGGTCTCCC
DNA 2: TGGTGGCTACGACGGGATT
B26: CUACCCA (DNA:RNA)
RNA: B1 RNA with U25C, U27A, U30C, G31A
DNA 1: CAATCTGAATTCCGGTCTCCC
DNA 2: TGGTGGCTACGACGGGATT
B27: UCGGGCC (DNA:RNA)
RNA: B4 RNA with C25U, A28G, A29G, U31C
DNA 1: CAATCTGAATTCCGGTCTCCC
DNA 2: TGGTGGCTACGACGGGATT
B28: GCGAGAC (DNA:RNA)
RNA: B4 RNA with C25G, A29G, C30A, U31C
DNA 1: CAATCTGAATTCCGGTCTCCC
DNA 2: TGGTGGCTACGACGGGATT
B29: GAUCCUC (DNA:RNA)
RNA: B1 RNA with U25G, U26A, G31C
DNA 1: CAATCTGAATTCCGGTCTCCC
DNA 2: TGGTGGCTACGACGGGATT
B30: ACCUCAC (DNA:RNA)
RNA: B4 RNA with C25A, G27C, A28U, A29C, C30A, U31C
DNA 1: CAATCTGAATTCCGGTCTCCC
DNA 2: TGGTGGCTACGACGGGATT
B31: GUGACAA (DNA:RNA)
RNA: B4 RNA with C25G, C26U, A29C, C30A, U31A
DNA 1: CAATCTGAATTCCGGTCTCCC
DNA 2: TGGTGGCTACGACGGGATT

biological target: T1, RBFOX1 RRM RbFoxmut (Fox-RRM*); experiment: EMSA; HiTS-Eq, 1 nM pool, 10 min; buffer printed only for the single-RNA assays: 10 mM Tris pH 7.5, 150 mM NaCl, 3.4 mM EDTA, 0.001% NP-40, 30 C; settings: tags: His6 N-terminal (pET28a); label: 5' 32P
Procedure, shortened: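 Purified RbFox RRM (wild type or mutant) was equilibrated for 10 min in 50 µL with 1 nM of a 5′-radiolabelled pool of RNA with 7 randomized nucleotides, its flanks annealed to DNA oligonucleotides, across increasing protein concentrations. Free RNA was separated by 8% native PAGE, excised, reverse-transcribed, PCR-barcoded and sequenced on an Illumina HiSeq 2500. Relative association constants came from read-count changes of each variant against the control reaction, normalised to the cognate motif.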

Binder | binding signal
B1 | 0.111 KA relative to UGCAUGU
B2 | 0.108 KA relative to UGCAUGU
B3 | 0.0447 KA relative to UGCAUGU
B4 | 0.0676 KA relative to UGCAUGU
B5 | 0.105 KA relative to UGCAUGU
B6 | 0.131 KA relative to UGCAUGU
B7 | 0.105 KA relative to UGCAUGU
B8 | 0.119 KA relative to UGCAUGU
B9 | 0.0766 KA relative to UGCAUGU
B10 | 0.0995 KA relative to UGCAUGU
B11 | 0.121 KA relative to UGCAUGU
B12 | 0.0987 KA relative to UGCAUGU
B13 | 0.0903 KA relative to UGCAUGU
B14 | 0.146 KA relative to UGCAUGU
B15 | 0.0949 KA relative to UGCAUGU
B16 | 0.141 KA relative to UGCAUGU

Binder | binding signal
B17 | 0.06 KA relative to UGCAUGU
B18 | 0.0548 KA relative to UGCAUGU
B19 | 1.04 KA relative to UGCAUGU
B20 | 0.113 KA relative to UGCAUGU
B21 | 0.0691 KA relative to UGCAUGU
B22 | 0.08 KA relative to UGCAUGU
B23 | 0.118 KA relative to UGCAUGU
B24 | 0.134 KA relative to UGCAUGU
B25 | 0.078 KA relative to UGCAUGU
B26 | 0.0706 KA relative to UGCAUGU
B27 | 0.147 KA relative to UGCAUGU
B28 | 0.0912 KA relative to UGCAUGU
B29 | 0.043 KA relative to UGCAUGU
B30 | 0.107 KA relative to UGCAUGU
B31 | 0.0515 KA relative to UGCAUGU

From PMC9911399, “Two distinct binding modes provide the RNA-binding protein RbFox with extraordinary sequence specificity”
